Source: the RNAGym collection of RNA variant scans (doi:10.1101/gad.245936.114)
Variants at the background level are over-represented here.

B1: tRNA (parent)
chain: CUCUCGGUAGCCAAGUUGGUUUAAGGCGCAAGACUUUAAUUUAUCACUACGAAAUCUUGAGAUCGGGCGUUCGACUCGCCCCCGGGAGAUUUUUUCCUCGAGCAA

Variants of: B1
Experiment: nonsense suppression (GFP-seq) (ratio to wild type); higher = more function; SUP4oc tRNA, yeast GFP reporter sort-seq
Procedure, shortened: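 To measure nonsense suppression, tRNA variants from a library carrying ~3% random mutations were integrated into the yeast genome alongside RFP and a GFP ochre reporter under galactose control. Growth took place in raffinose/galactose medium supplemented with 80 mg/L adenine, followed by sorting into GFP/RFP bins and Illumina sequencing of each bin (phred ≥30). For each variant with ≥100 reads and ≥30 cells, the bin median GFP/RFP values were weighted by its estimated cell share per bin and referenced to the unmutated parent tRNA.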

Nonsense suppression, 0.755:
U63A C68U

Nonsense suppression, 0.228:
U63C C68U

Nonsense suppression, 0.0863:
G61A A62C

Nonsense suppression, 0.201:
A62U C75G

Nonsense suppression, 0.045:
G61C G85C

Nonsense suppression, 0.0424:
A60C A74G

Nonsense suppression, 0.0882:
U63G C82U

Nonsense suppression, 0.0318:
A60G A74C

Nonsense suppression, 0.119:
A60G G85C

Nonsense suppression, 0.73:
G61U C82U

Nonsense suppression, 0.0498:
A60G G78U

Nonsense suppression, 0.0286:
A60G G66U

Nonsense suppression, 0.133:
U63A C72U

Nonsense suppression, 0.203:
A60U G65C C81G

Nonsense suppression, 1.13:
U63A C75G

Nonsense suppression, 0.0339:
A62G G78U

Nonsense suppression, 1.1:
A60U C68U

Nonsense suppression, 0.311:
G61A A62U

Nonsense suppression, 0.449:
U63C C82U

Nonsense suppression, 0.116:
U63G G69A

Nonsense suppression, 0.0764:
U63G U76C

Nonsense suppression, 0.06:
U63A G78A

Nonsense suppression, 0.178:
U63A C82U

Nonsense suppression, 0.13:
G61C G78U

Nonsense suppression, 0.0684:
A60G A74G

Nonsense suppression, ≤ 0.026:
G59C G73A G88U
C64U U70C
G61A A62U A89C
G61A G66C U76C C79G
A62G G65U
G61A G67U
G61C U70C
G61C G66A
A60C U76A
A60U G65U A74C C82A
A62G G85A
A62U U76A C82U
U63G G65U
U63A C82G
G59U C72A
G59U C72G
G61C A87G G88U
C64A C68U C75A
A62U G65U
A62U G65C
A62G C68A
G65A C68A
A60U C68G
A62G C64U
G65A C72A
G61C C83A
A60C G65C U76C G78C
G61A U76A C83G
U63G G65U C75U
A60G A87U
G59C G84U
A62G G67U U70G
A62C G69C
C64U C79G
A62G C72G
U63A U70C C82G
G59U A62G
G59U A62U
G61U U76G
G61A A62G
G59C G66A
G59C A60G A62C U70G C79A
C64A G88A
A62C C79G G86U
A62C C79A
A62C C79G
A60U G69U C83A G88U
A62U A89C
A62U G69C G78U C82A
G59U A74C
A62U G85C A89C
G59U C72G C79G G86C
A62G U63C G66A
U63C U71A G73U
A62G G66C
U63C C77U
A60G C83G
C64U G85U A87G
G59U G78A
G65A
C64G A87U
U63C A74G A87C
U63G U70A A74G
G61C C68A A74U
G59U G61C C64A
A62C G78A
A62C G78C
A62C G78U
U63A U70G
U63A G88A A89U
U63C C64G
A62C A74U
U63A A74C
G61U C82A
A62G G88U
G59C G88C
G59C G88U
U63C A74U
U63A G66C C75G C79U
G61U G69C U70A U76G C83A
A62C C75G
C64G G69A U70G
A62G G67C G73A
A60C C75U G86C
A62G U71A
A60C A74U
A60G U70C C75A
G59C A74U
G61C C79A
G59U U71C
A62C G88U
G65A C79A
A60U U63C C72A
G61C U70C C77A G84C
A62U G67C
G65A C82A
A62C C83A
G61U A62U A89G
C64A C80U
A60C G86C G88A
G59U A89U
A60U C80G C81U
U63G C80G C83U
G61C G66C G73U
C64G G67C
U63C C68A A89G
U63A G69C C80G
A60U G73C
G59U G65C
U63G C81U
U63A G78C A87G
G59U U63C G67C
G61A G86C
G65A G67A
A60C G69A
U63A C68A
G61C C68U U76C
G59C C77G
U63G A89U
U63G A89C
A62G U70G
A62G U70A
U63C G88C
U63A G84C A87C
A60U A74C
A62C C77U
A62C C77G
A62U G67A G86C
U63G C80U
U63G C80G
G61A G65C G69A C80U
C64G G84A G85A
G61C A89U
G61C A89G
G61C A89C
A62C G73C U76C G78C
G59C U70G
G59C U70A
G61A U70A C80G A87C
A60U U70C U76C
U63C G66A
G61C C82A
